Source: the antibiotic and cytotoxicity screens of Wong et al. (2023)
The list shows a part of the results.

Test system: S. aureus RN4220
Experiment: growth inhibition call (relative growth <= 0.2)
Settings: 50 µM

Growth inhibition call, inactive:
C[C@H]1CN([C@@H](C)CO)C(=O)c2cc(NC(=O)Nc3ccc4c(c3)OCO4)ccc2O[C@@H]1CN(C)S(C)(=O)=O
C=C(CC)C(=O)c1ccc(OCC(=O)O)c(Cl)c1Cl
CCc1nc2ccc(C(=O)N3CCN(S(=O)(=O)CC)CC3)cn2c1N(C=O)Cc1ccc(OC)cc1
C[C@H](CO)N1C[C@H](C)[C@@H](CN(C)Cc2ccncc2)OCCCC[C@H](C)Oc2ccc(NC(=O)Nc3ccc(F)cc3)cc2C1=O
C[C@@H]1CN([C@@H](C)CO)C(=O)Cc2cc(NC(=O)c3ccncc3)ccc2O[C@@H]1CN(C)S(=O)(=O)c1cccs1
CN(C)c1nc(N)nc(Cn2ccnc2)n1
C[C@H](CO)N1C[C@H](C)[C@H](CN(C)S(=O)(=O)c2cccc(F)c2)Oc2ncc(-c3cccc(C(=O)N(C)C)c3)cc2C1=O
Cc1noc(C)c1NC(=O)N(C)C[C@@H]1Oc2ccc(NC(=O)C3CC3)cc2CC(=O)N([C@H](C)CO)C[C@@H]1C
CC[C@H]1CN(C(=O)c2cnccn2)N1C
O=C(C[C@H]1CC[C@@H](NS(=O)(=O)c2ccc(F)cc2)[C@@H](CO)O1)NCc1ccc(Cl)c(Cl)c1
CCCCCC/C=C\CCCCCCCC(=O)O
COC(=O)c1c(CC[C@@H](CO)NC(=O)N[C@H](Cn2cc(Cc3ccccc3)nn2)C(C)C)oc(C(C)=O)c1C(=O)OC
C[C@H](CO)N1C[C@H](C)[C@H](CN(C)C(=O)Nc2ccccc2)Oc2ccc(NS(C)(=O)=O)cc2C1=O
Cc1noc(C)c1S(=O)(=O)Nc1cccc2c1O[C@@H](CN(C)S(=O)(=O)c1cccs1)[C@@H](C)CN([C@H](C)CO)C2=O
C[C@H]1CN([C@@H](C)CO)C(=O)CCCn2cc(nn2)CO[C@@H]1CN(C)C(=O)Nc1ccc(C(C)(C)C)cc1
C[C@@H]1CN([C@@H](C)CO)C(=O)c2cc(C#Cc3ccccc3)cnc2O[C@H]1CN(C)C(=O)CCN1CCCCC1
N#CCC(=O)NN
C[C@H]1CN([C@@H](C)CO)C(=O)c2cc(Br)cnc2O[C@@H]1CN(C)C(=O)Nc1ccc(F)cc1
C[C@@H]1CN([C@H](C)CO)C(=O)c2cc(NC(=O)Nc3ccc4c(c3)OCO4)ccc2O[C@@H](C)CCCCO[C@@H]1CN(C)Cc1ccc(C(=O)O)cc1
CC(=NNC(=O)c1nnn(-c2nonc2N)c1CN1CCC(C)CC1)c1cccc(Br)c1
O=C(CCCN1CCN(c2ccccn2)CC1)c1ccc(F)cc1
C[C@@H]1CN([C@H](C)CO)S(=O)(=O)c2ccc(C3=CCCC3)cc2O[C@@H]1CN(C)C(=O)C1CCOCC1
C[C@@H]1CCCCO[C@H](CN(C)C(=O)c2ccccc2)[C@@H](C)CN([C@H](C)CO)C(=O)c2cc(NC(=O)Nc3ccc4c(c3)OCO4)ccc2O1
C[C@H](CO)N1C[C@H](C)[C@@H](CN(C)C(=O)Nc2ccc(F)cc2)OCCCC[C@H](C)Oc2ccc(NC(=O)Nc3ccc(F)cc3)cc2C1=O
C[C@H]1CN([C@@H](C)CO)C(=O)Cc2cc(NS(C)(=O)=O)ccc2O[C@H]1CN(C)C(=O)Nc1ccc2c(c1)OCO2
Cc1ccc(S(=O)(=O)Nc2ccc3c(c2)C(=O)N([C@H](C)CO)C[C@H](C)[C@H](CN(C)Cc2ccncc2)OCCCC[C@H](C)O3)cc1
COc1ccc(NC(=O)Nc2ccc3c(c2)CC(=O)N([C@@H](C)CO)C[C@@H](C)[C@@H](CN(C)S(=O)(=O)c2cn(C)cn2)O3)cc1
C[C@H](CO)N1C[C@H](C)[C@@H](CN(C)C(=O)Nc2ccccc2)OCCCC[C@H](C)Oc2ccc(NC(=O)Nc3ccc4c(c3)OCO4)cc2C1=O
CC(=O)N1CCS(=O)(=O)[C@@H]2CCN(S(=O)(=O)c3ccccc3C)CC[C@@H]21
O=C(CN1CCOCC1)N[C@H]1CC[C@H](CCNC(=O)Nc2cc(F)ccc2F)O[C@@H]1CO
Nc1ncnc2c1ncn2CCN1CCOCC1
CC(C)NC(=O)Nc1ccc2c(c1)C(=O)N([C@@H](C)CO)C[C@H](C)[C@H](CN(C)S(=O)(=O)c1cn(C)cn1)O2
C[C@@H]1CN([C@@H](C)CO)S(=O)(=O)c2ccc(-c3ccncc3)cc2O[C@H]1CN(C)C(=O)c1ccc2c(c1)OCO2
Cc1ccn2c(=O)c(C(=O)O)cnc2c1
C=CCOC(=O)[C@H]1[C@@H]2C(=O)O[C@@H](c3ccccc3)[C@@H](c3ccccc3)N2[C@@H](c2ccc(OCCOC(=O)[C@H]3C[C@H]4C(=O)NCC(=O)N4[C@H]3c3ccc(O)cc3)cc2)[C@]12C(=O)Nc1ccccc12
C[C@H](CO)N1C[C@H](C)[C@H](CN(C)Cc2ccc(Cl)c(Cl)c2)Oc2ccc(NS(=O)(=O)c3ccc(Cl)cc3)cc2CC1=O
O=C(C[C@H]1CC[C@H]2[C@@H](COC[C@@H](O)CN2S(=O)(=O)c2cccc(F)c2)O1)NCc1ccc2c(c1)OCO2
C[C@H](CO)N1C[C@H](C)[C@@H](CN(C)CC2CCCCC2)Oc2ccc(NC(=O)CCN3CCOCC3)cc2CC1=O
C[C@@H]1CCCCO[C@@H](CN(C)CC2CCCCC2)[C@H](C)CN([C@H](C)CO)C(=O)c2cc(NC(=O)Nc3ccccc3)ccc2O1
Cc1ccc(S(=O)(=O)Nc2ccc3c(c2)C(=O)N([C@@H](C)CO)C[C@H](C)[C@H](CN(C)C(=O)c2ccccc2)OCCCC[C@@H](C)O3)cc1
